# Data: PubChem BioAssay AID1508642 (National Center for Advancing Translational Sciences (NCATS), 2021)
# Screen size: about 43,000 compounds; about 200 (0.47%) were called active. Inconclusive results, whose numbers are uncertain, are shown with a selection of clear calls. Calls follow the shape of the dose curve; as a rule, active = well fitted cell-killing curve with a large enough effect; inconclusive = small, poorly fitted or top-dose-only effect, or effect the other way; inactive = flat fitted curve, though single readings scatter. A potency beside an inconclusive call is a rough fit, not a confirmed value.
# Assay: Cell viability qHTS assay in S16 Pmp22-F2sN cells; also: nearly all actives have a fitted effect of over 65% in size
# Conditions: S16 Pmp22-F2sN Schwann cells (luciferase reporters placed in the Pmp22 gene) viability, CellTiter-Glo, 24 h; activity change, negative = cytotoxicity: at 57.5 µM (top of the series)
# Source text: Assay Provider: Jim Inglese Ph.D. National Center for Advancing Translational Science, National Institutes of Health, Rockville, MD CMT is a heterogeneous group of neurological disorders that affect approximately 1 in 2,500 people. In particular, the most common form of CMT, CMT1A is genetically linked to the duplication of the PMP22 gene which leads to Schwann cell overexpression, thus manifesting itself as a typical case of dose-sensitive diseases. To identify small molecule compounds that can mediate the expression of PMP22 we developed a phenotypic assay screening strategy by utilizing genome editing techniques to construct Schwann cell lines containing novel reporter technology to monitor the transcriptional or translational regulation of PMP22. For high sensitivity we use a bioluminescent reporter system embedded in the 3' UTR of the PMP22 gene (S16(c9) Pmp22-F2sN) to identify compounds that inhibit gene expression. […] We can further discriminate the effect of all transcriptionally active molecules on PMP22 translation or stability with an assay that incorporates a short NLuc peptide (HiBiT) at the C-terminus of expressed PMP22 (S16(f8) PMP22-HiBiT) allowing alpha complementation and luminescence detection of membrane-associated PMP22 protein. These assays were screened against the NCATS Sytravon Library Collection. Miniaturization of these assays to 1536-well plate format for quantitative high throughput screening (qHTS) yielded rich data sets immediately from the qHTS assay (S16(c9) Pmp22-F2sN), when compared with data from a cell viability assay (Cell TiterGlo) to identify compounds that decreased the output signals through cellular toxicity to streamline the selection process of actives for subsequent characterization using the HiBiT assay (S16(f8) PMP22-HiBiT).
# Cell viability assay in S16 Pmp22-F2sN cells PROTOCOL TABLE (format as described by Inglese J, Shamu CE and Guy RK. 2007) SEQUENCE No. (e.g., 1, 2, 3, etc.); […] (e.g., Cells, Incubation, Reagent, etc.); VALUE and DESCRIPTION. 1. Cells. Add 500-1,000 cells in 4 uL in growth media (DMEM High Glucose, No Phenol Red media + 10% heat-inactivated FBS + 1% Pen/Strep supplemented media) per well into Greiner 1536-well white/solid bottom high base, TC-treated plates. 2. Compounds. Library compounds and controls added at 23nL per well, transferred by Pin Tool. 3. Incubation. Incubate plates at 37C, 5% CO2, 95% RH for 24 h. 4. Reagent. Add 3uL CellTiter-Glo per well of Greiner 1536-well plates. 5. Incubation. Incubate plates at room temperature for 15 min., protect from light. 6. Detector. FLuc luminescence measured using CCD-based camera (Viewlux). NOTES (numbers refer to Sequence numbers above; values are from representative experiments) 6. Luminescence Read: Clear filter; Exposure = 1 sec, Gain = High, Speed = Slow, Binning = 2X REFERENCES: 1. Inglese J, Shamu CE and Guy RK, Reporting data from high throughput screening of small molecule libraries, Nature Chemical Biology, 2007, 3(8): 438-441. doi.org/10.1038/nchembio0807-438 2. Yasgar A, Shinn P, Jadhav A, Auld DS, Michael S, Zheng W, Austin CP, Inglese J and Simeonov A, Compound Management for Quantitative High-Throughput Screening. J. Assoc. Lab. Auto., 2008, 13: 79-89. doi: 10.1016/j.jala.2007.12.004
# % is scaled to controls: 0 for no effect and ±100 for the full control effect; potency is read from the fitted curve at half-maximal effect; tags tell the direction and shape of the fitted curve.
SMILES,Potency,"activity change, negative = cytotoxicity"
CCOc1ccc(NC(=O)c2ccc3nc(C(C)C)oc3c2)cc1,"inconclusive: 39.8 µM [cytotoxic, single point]",–
COc1cc(C(=O)Nc2c(C(=O)Nc3ccccc3F)oc3ccccc23)cc(OC)c1OC,–,inactive: 1.41%
COc1ccc(C(C)=O)cc1CSc1nc(NCc2ccccc2)c2ccccc2n1,–,inactive: -7.94%
CC(CNC(=O)c1cc2cc(S(=O)(=O)N3CCCCC3)ccc2n1C)c1ccccc1 (stereo not given),"inconclusive: 22.4 µM [cytotoxic, single point]",–
O=C(CSc1nc2ccsc2c(=O)n1-c1ccc(Br)cc1)NCc1ccc(Cl)cc1,–,inactive: 2.23%
Cc1ccc(NS(=O)(=O)c2c(C)nc3sc(C)c(C)n3c2=O)cc1F,"inconclusive: 28.2 µM [cytotoxic, single point]",–
O=C(Cn1cc(SCc2ccc(Cl)cc2)c2ccccc21)N1CCCC1,"inconclusive: 35.5 µM [cytotoxic, single point]",–
Cc1ccccc1Nc1c(-c2ccc(O)cc2)nc2c(C)cccn12,"inconclusive: 25.1 µM [cytotoxic, single point]",–
COc1cccc(/C=C/c2nc3ccccc3c(=O)n2-c2ccc(C)c(C)c2)c1OC,"inconclusive: 35.5 µM [cytotoxic, single point]",–
CCCSc1ncc(Cl)c(C(=O)Nc2sc3c(c2C(N)=O)CCCC3)n1,–,inactive: -2.98%
COC(=O)c1scc(-c2ccc(C)cc2)c1S(=O)(=O)Nc1ccc(NC(C)=O)cc1,"inconclusive: 25.1 µM [cytotoxic, partial curve, poor fit]",–
COc1ccc(S(=O)(=O)N(CC(=O)NCCSc2ccccc2)c2ccc(Cl)cc2)cc1,"inconclusive: 2 µM [cytotoxic, full curve, poor fit]",–
CCOC(=O)c1cc2c(=O)n3ccccc3nc2n(Cc2ccco2)c1=NC(=O)c1ccc(OC)cc1,"inconclusive: 39.8 µM [cytotoxic, single point]",–
CC(=O)N1CCCc2cc(S(=O)(=O)N3CCCC(C(=O)N4CCN(c5ccccc5F)CC4)C3)ccc21 (stereo not given),active: 10 µM,–
COc1ccc(NC(=O)c2nn(C)c3c2CSc2ccc(C)cc2-3)cc1OC,"inconclusive: 39.8 µM [cytotoxic, single point]",–
COc1ccc(OC)c(CNC(=O)c2cc(=O)[nH]c3ccc(S(=O)(=O)N4CCCCC4C)cc23)c1 (stereo not given),–,inactive: 6.88%
CCC(=O)Nc1ccc(S(=O)(=O)NCc2cccn2Cc2cccc(C)c2)cc1,"inconclusive: 10 µM [cytotoxic, partial curve, poor fit]",–
Cc1ccc(C)c(N2CCN(CCCNc3ncnc4onc(-c5ccc(Cl)cc5)c34)CC2)c1,–,inactive: 5.11%
CCOC(=O)c1cccc(NS(=O)(=O)c2cc(Br)cc3c2N(C(=O)C2CC2)CC3)c1,–,inactive: 0.382%
CCn1c(CN2CCCCC2)nc2cc(NC(=O)COc3ccc(C(C)(C)C)cc3)ccc21,"inconclusive: 39.8 µM [cytotoxic, single point]",–

SMILES,Potency,"activity change, negative = cytotoxicity"
CCCN1C(=O)C(Cc2nc3ccccc3c(=O)n2CC)c2cc(Br)ccc21 (stereo not given),"inconclusive: 28.2 µM [cytotoxic, partial curve, poor fit]",–
Cc1oc(-c2cccc(Br)c2)nc1Cn1c(SCc2cccc(F)c2)nc2cccnc21,–,inactive: -15.1%
O=C(CCC1N=C2c3ccccc3N=C(SCc3cccc(Cl)c3)N2C1=O)NCCc1ccccc1 (stereo not given),"inconclusive: 39.8 µM [cytotoxic, single point]",–
CCCCN(C)CCNC(=O)c1cc(-c2ccc(Cl)s2)nc2ccccc12,"inconclusive: 39.8 µM [cytotoxic, single point]",–
CCOC(=O)c1c(-c2ccccc2)csc1NC(=O)c1nc(SCC)ncc1Cl,–,inactive: -6.05%
CCc1ccc(NS(=O)(=O)c2ccc3[nH]c4c(c3c2)CCCCCC4)cc1,"inconclusive: 39.8 µM [cytotoxic, single point]",–
CC(C)c1ccc(NC(=O)CSC2=Nc3ccccc3C3=NC(CC(=O)NC4CCCCC4)C(=O)N23)cc1 (stereo not given),"inconclusive: 31.6 µM [cytotoxic, single point]",–
O=C(Nc1ccc(Br)cc1)c1cccc(S(=O)(=O)N2CCc3ccccc32)c1,–,inactive: -2.74%
CCOC(=O)c1ccc(NC(=O)c2c(NCc3cccc(OC)c3OC)sc3c2CCC3)cc1,"inconclusive: 3.16 µM [cytotoxic, full curve, poor fit]",–
CCn1cc2nc(SCc3cccc(C(F)(F)F)c3)n(Cc3ccc(C)cc3)c(=O)c2n1,"inconclusive: 31.6 µM [rising, single point]",–
Cc1ccn2cc(-c3ccc(C)c(NS(=O)(=O)c4ccc(Cl)cc4)c3)nc2c1,"inconclusive: 35.5 µM [cytotoxic, partial curve, poor fit]",–
Cc1ccc(S(=O)(=O)c2nc(-c3cccc(Cl)c3)oc2NCc2ccccc2)cc1,"inconclusive: 0.0447 µM [cytotoxic, full curve, poor fit]",–
Cc1cc(C)c(NC(=O)Cn2c(=O)n(Cc3ccc(C(=O)NCc4ccco4)cc3)c(=O)c3sccc32)c(C)c1,–,inactive: -6.49%
CN(C)CCNC(=O)c1ccc2c(c1)N(Cc1c(F)cccc1Cl)C(=O)c1ccccc1S2,"inconclusive: 39.8 µM [cytotoxic, single point]",–
COc1ccc(NC(=O)c2oc3ccccc3c2NC(=O)Cc2cccs2)c(OC)c1,"inconclusive: 35.5 µM [rising, partial curve, poor fit]",–
CCN1CCN(Cc2c(O)ccc3cc(-c4ccc(OC)cc4)c(=O)oc23)CC1,–,inconclusive: -34.5% [cytotoxic]
COc1ccc(C)cc1Nc1nc(N)c2cc(OC)c(OC)cc2n1,"inconclusive: 25.1 µM [cytotoxic, single point]",–
CC(=O)c1cccc(NC(=O)c2nc(-c3ccccc3)n(-c3ccccc3C)n2)c1,"inconclusive: 39.8 µM [cytotoxic, single point]",–
Cc1nc2c(c(C)nn2-c2ccccc2)c(C)c1CCC(=O)NCc1ccccc1,"inconclusive: 2 µM [cytotoxic, partial curve, poor fit]",–
CCc1cccc(NC(=O)C2CCN(S(=O)(=O)c3cccc(-c4noc(C)n4)c3)CC2)c1,"inconclusive: 35.5 µM [cytotoxic, single point]",–

SMILES,Potency,"activity change, negative = cytotoxicity"
CCN1CCN(c2cc(C)c3cc(NC(=O)c4ccc(OC)c(OC)c4)ccc3n2)CC1,active: 20 µM,–
CCCn1cc(S(=O)(=O)c2ccccc2)c(=O)c2cc(F)c(N3CCCC3)cc21,"inconclusive: 39.8 µM [cytotoxic, single point]",–
Cc1cccc(OCC(=O)Nc2ccc3c(c2)N(C)C(=O)c2ccccc2S3)c1,"inconclusive: 39.8 µM [cytotoxic, single point]",–
Cc1cccc(NC(=O)CSc2nc3c([nH]c4ccccc43)c(=O)n2-c2ccc(F)cc2)c1C,"inconclusive: 28.2 µM [cytotoxic, partial curve]",–
CC(C)Sc1ncc(Cl)c(C(=O)Nc2ccc(S(=O)(=O)N3CCCCC3C)cc2)n1 (stereo not given),"inconclusive: 39.8 µM [cytotoxic, single point]",–
O=C(Cn1nc(C(F)(F)F)c2c1CCCC2)Nc1ccc(Cl)cc1,"inconclusive: 0.891 µM [rising, partial curve, poor fit]",–
CCc1ccc(N2C(=O)CSC23C(=O)N(Cc2cccc(F)c2)c2ccccc23)cc1 (stereo not given),"inconclusive: 2.24 µM [rising, full curve, poor fit]",–
O=C(Cc1ccc(Cl)cc1)NCC(c1cccs1)S(=O)(=O)c1ccc(Cl)cc1 (stereo not given),"inconclusive: 39.8 µM [cytotoxic, partial curve, poor fit]",–
Fc1ccccc1N1CCN(c2c3c(nc4nncn24)CCC3)CC1,"inconclusive: 39.8 µM [cytotoxic, single point]",–
Cc1ccc2nc(CN3CCN(C(=O)Nc4cccc(C)c4C)CC3)oc2c1,"inconclusive: 2.51 µM [cytotoxic, partial curve, poor fit]",–
CC1CN(C(=O)Nc2ccc(C(=O)NCCc3ccccc3Cl)cc2)c2ccccc2S1 (stereo not given),"inconclusive: 11.2 µM [rising, partial curve, poor fit]",–
Cc1ccc(-n2ncc(C(=O)NCCCN3CCc4ccccc4C3)c2C2CCN(C(=O)OC(C)(C)C)CC2)cc1C,"inconclusive: 39.8 µM [cytotoxic, single point]",–
CCc1ccc(-c2nc(CN3CCC(C(=O)NCCc4ccc(Cl)cc4)CC3)c(C)o2)cc1,–,inactive: 15.8%
CCCCN(C)CCNC(=O)c1ccc2c(=O)n(CCc3ccccc3)c(=O)[nH]c2c1,"inconclusive: 0.447 µM [rising, partial curve, poor fit]",–
O=C(CCCCCn1c(=O)c2sccc2n(CC(=O)Nc2cccc(Cl)c2)c1=O)NCc1ccc2c(c1)OCO2,"inconclusive: 39.8 µM [cytotoxic, single point]",–
COc1ccc(NC(=O)CCS(=O)(=O)c2nc(-c3cccs3)cc(C(F)(F)F)n2)cc1OC,"inconclusive: 35.5 µM [cytotoxic, single point]",–
Cc1ccc(NC(=O)NCc2ccc3c(c2)CCN3C(=O)c2ccccc2)c(Cl)c1,"inconclusive: 39.8 µM [cytotoxic, single point]",–
C#CC(C)(C)NS(=O)(=O)c1cc(-c2nnc(Nc3ccc(C)cc3)c3ccccc23)ccc1C,"inconclusive: 31.6 µM [cytotoxic, partial curve, poor fit]",–
Cc1ccc(S(=O)(=O)c2nc(-c3cccs3)oc2N2CCCCC2)cc1,"inconclusive: 3.16 µM [cytotoxic, full curve, poor fit]",–
CCOc1ccc(-n2c(-c3ccc(C)cc3)nc3c(cnn3-c3ccccc3)c2=O)cc1,"inconclusive: 22.4 µM [cytotoxic, partial curve, poor fit]",–
